Assay results as given in the supplement of paper PMC9174493.
The other results are listed elsewhere or left out. Single values of this set are uncertain. Values with irradiation are relative to irradiated vehicle.

test system: A549-Dual; assay: ISRE reporter (Lucia luciferase) activity, viability-corrected, relative to vehicle (fold change vs vehicle); higher = more activation of STING-IRF / NF-kB immune response reporter; settings: 10 µM; irradiation: 8 Gy/4 fr

SMILES	ISRE reporter
CC(C)NCC(O)c1ccc(O)c(O)c1.CC(C)NCC(O)c1ccc(O)c(O)c1.O.O.O=S(=O)(O)O (stereo not given) [Isoproterenol sulfate dihydrate]	0.977
CC(=O)O.N=C(N)NCCCC(N)C(=O)NC(CCCNC(=N)N)C(=O)N1CCCC1C(=O)N1CC(O)CC1C(=O)NCC(=O)NC(Cc1cccs1)C(=O)NC(CO)C(=O)N1Cc2ccccc2CC1C(=O)N1C(C(=O)NC(CCCNC(=N)N)C(=O)O)CC2CCCCC21 (stereo not given) [Icatibant Acetate]	1.64
O=C1C(O)=C(C2CCC(c3ccc(Cl)cc3)CC2)C(=O)c2ccccc21 (stereo not given) [Atovaquone]	0.379
Cc1ncc(COP(=O)([O-])[O-])c(CN(CCN(CC(=O)O)Cc2c(COP(=O)([O-])O)cnc(C)c2O)CC(=O)O)c1O.[Mn].[Na+].[Na+].[Na+] [Mangafodipir Trisodium]	0.597
OC1COC2C(O)COC12 (stereo not given) [Isosorbide]	0.812
Nc1nc(=O)n(C2CSC(CO)O2)cc1F (stereo not given) [Emtricitabine]	0.596
CN(C)CC/C=C1/c2ccccc2COc2ccc(CC(=O)O)cc21.Cl [Olopatadine HCl]	0.951
CCC1OC(=O)C(C)C(OC2CC(C)(OC)C(O)C(C)O2)C(C)C(OC2OC(C)CC(N(C)C)C2O)C(C)(O)CC(C)C2NC(COCCOC)OC(C2C)C1(C)O (stereo not given) [Dirithromycin]	0.994
CCN(CC)C(=O)Nc1ccc(OCC(O)CNC(C)(C)C)c(C(C)=O)c1.Cl (stereo not given) [Celiprolol hydrochloride]	1.06
Cl.OC(CCN1CCCC1)(c1ccccc1)C1CCCCC1 (stereo not given) [Procyclidine HCl]	1.2
C#CC1(O)CCC2C3CCc4cc(OC)ccc4C3CCC21C (stereo not given) [Mestranol]	0.478
Cl.N[C@@H](CS)C(=O)O [L-Cysteine HCl]	1.43
OCC1OC(OCC2OC(OC3(CO)OC(CO)C(O)C3O)C(O)C(O)C2O)C(O)C(O)C1O (stereo not given) [Raffinose]	0.764
CN(C)CCOc1ccc(/C(=C(/CCCl)c2ccccc2)c2ccccc2)cc1.O=C(O)CC(O)(CC(=O)O)C(=O)O [Toremifene Citrate]	0.929
COC1(NC(=O)C(C(=O)[O-])c2ccc(O)cc2)C(=O)N2C(C(=O)[O-])=C(CSc3nnnn3C)COC21.[Na+].[Na+] (stereo not given) [Latamoxef sodium]	0.885
CC(CCC(=O)O)C1CCC2C3C(O)CC4CC(O)CCC4(C)C3CC(O)C12C (stereo not given) [Cholic acid]	1.11
O=C(O)CCC(=O)Nc1ccc(S(=O)(=O)Nc2nccs2)cc1 [Succinylsulfathiazole]	0.769
CCn1cc(C(=O)O)c(=O)c2cnc(N3CCCC3)nc21 [Piromidic Acid]	0.862
O.O.O.O.O=P([O-])(O)C(Cl)(Cl)P(=O)([O-])O.[Na+].[Na+] [Clodronate disodium tetrahydrate]	0.862
COCC(=O)Nc1cc(Sc2ccccc2)ccc1N=C(NC(=O)OC)NC(=O)OC [Febantel]	0.606

SMILES	ISRE reporter
Oc1c(Cl)cc(Cl)cc1Sc1cc(Cl)cc(Cl)c1O [Bithionol]	0.163
CC(CCC(=O)O)C1CCC2C3C(O)CC4CC(O)CCC4(C)C3CCC12C (stereo not given) [Ursodiol]	0.708
CN(C)c1ccc2nc3ccc(=[N+](C)C)cc-3sc2c1.[Cl-] [Methylene Blue]	0.311
Clc1ccccc1C(c1ccccc1)(c1ccccc1)n1ccnc1 [Clotrimazole]	0.308
CC12CC3(O)OC(O1)C1(COC(=O)c4ccccc4)C3CC21OC1OC(CO)C(O)C(O)C1O (stereo not given) [Paeoniflorin]	0.87
Cl.Nc1c(Br)cc(Br)cc1CNC1CCC(O)CC1 (stereo not given) [Ambroxol HCl]	0.994
COCC1=C(C(=O)OC(C)OC(=O)OC(C)C)N2C(=O)C(NC(=O)/C(=N\OC)c3csc(N)n3)C2SC1 (stereo not given) [Cefpodoxime proxetil]	0.802
Cc1cc(NS(=O)(=O)c2ccc(N)cc2)no1 [Sulfamethoxazole]	0.904
CN(C)CCc1c[nH]c2ccc(CC3COC(=O)N3)cc12 (stereo not given) [Zolmitriptan]	1.04
CCC1OC(=O)C(C)C(OC2CC(C)(OC)C(O)C(C)O2)C(C)C(OC2OC(C)CC(N(C)C)C2O)C(C)(O)CC(C)C(=O)C(C)C(O)C1(C)O.N#CS (stereo not given) [Erythromycin thiocyanate]	0.717
COc1ccc(CC2c3cc(OC)c(OC)cc3CC[N+]2(C)CCC(=O)OCCCCCOC(=O)CC[N+]2(C)CCc3cc(OC)c(OC)cc3C2Cc2ccc(OC)c(OC)c2)cc1OC.O=S(=O)([O-])c1ccccc1.O=S(=O)([O-])c1ccccc1 (stereo not given) [Cisatracurium Besylate]	0.591
CNCCC(Oc1cccc2ccccc12)c1cccs1 (stereo not given) [Duloxetine]	1.07
NC(Cc1cc(I)c(Oc2ccc(O)c(I)c2)c(I)c1)C(=O)O (stereo not given) [Triiodothyronine]	1.02
Oc1cc(O)c2c(c1)OC(c1ccc(O)c(O)c1)C(O)C2 (single isomer, unassigned; (+)) [(+)-Catechin hydrate]	0.782
CC1CCC2C(C)C(O)OC3OC4(C)CCC1C32OO4 (stereo not given) [Dihydroartemisinin (DHA)]	0.645
COc1ccccc1OCC(O)CO (stereo not given) [Guaifenesin]	0.802
NC(=O)c1ncn(C2OC(CO)C(O)C2O)n1 (stereo not given) [Ribavirin]	0.713
COC(=O)N/N=C/c1c[n+]([O-])c2ccccc2[n+]1[O-] [Carbadox]	0.154
C=C(C)C1CC=C(C)CC1 [(S)-(-)-Limonene]	1.19
COc1cc(C(=O)NCc2ccc(OCCN(C)C)cc2)cc(OC)c1OC.Cl [Tribenzagan Hydrochloride]	0.956
